# The BET-seq Pho4 binding data (Le et al. 2018)
# Some of the results follow. The energies were worked out here from pooled read counts, against the library average; single values are noisy.
# Target: T1, Pho4 (S. cerevisiae) (UniProt P07270)
# T1 sequence: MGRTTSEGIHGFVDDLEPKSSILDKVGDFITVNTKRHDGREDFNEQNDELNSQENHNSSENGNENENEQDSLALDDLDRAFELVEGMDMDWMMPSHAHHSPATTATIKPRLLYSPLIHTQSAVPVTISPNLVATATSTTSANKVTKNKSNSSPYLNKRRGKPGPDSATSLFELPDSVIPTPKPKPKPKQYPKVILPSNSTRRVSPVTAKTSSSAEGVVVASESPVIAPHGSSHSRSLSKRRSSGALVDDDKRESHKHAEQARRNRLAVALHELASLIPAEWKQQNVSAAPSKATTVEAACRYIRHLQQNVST
# Experiment: relative binding free energy (BET-seq); higher = weaker binding
# Settings: reference: library average
row,Sequence,relative binding free energy
1,ATGTGCACGTGTACGG,-0.13 kcal/mol
2,TGCTACACGTGGTTGG,0.12 kcal/mol
3,TGTTGCACGTGCTTGT,-0.16 kcal/mol
4,TCGGACACGTGGTAGA,0.09 kcal/mol
5,ACGGCCACGTGGTGTA,-0.14 kcal/mol
6,CGTGACACGTGTCAGG,0.07 kcal/mol
7,ATTTACACGTGGTAGT,-0.02 kcal/mol
8,ATTTTCACGTGTGGTT,0.26 kcal/mol
9,CGGGGCACGTGCTTTT,-0.13 kcal/mol
10,ATCGGCACGTGTGCTT,0.02 kcal/mol
11,TTCAGCACGTGTTTTA,-0.06 kcal/mol
12,TATGACACGTGCTTTT,0.09 kcal/mol
13,AATTTCACGTGGTATT,0.21 kcal/mol
14,GGCGGCACGTGTTAGA,0.04 kcal/mol
15,CTGTACACGTGTCTGT,0.15 kcal/mol
16,TGGATCACGTGTTACT,0.15 kcal/mol
17,TGTTACACGTGAGATG,0.27 kcal/mol
18,GTTAGCACGTGCGGTC,0.03 kcal/mol
19,TAGCACACGTGGGGGC,-0.03 kcal/mol
20,ATGGACACGTGTGTTG,0.1 kcal/mol
21,GGAACCACGTGGATGG,0.11 kcal/mol
22,AGGTGCACGTGCGGTG,-0.07 kcal/mol
23,TTTATCACGTGGCAGT,0.07 kcal/mol
24,TGGAGCACGTGTCGGC,-0.14 kcal/mol
25,ACGGCCACGTGCGGGG,-0.17 kcal/mol

row,Sequence,relative binding free energy
1,TGTCTCACGTGATTAG,0.21 kcal/mol
2,ATTTGCACGTGCAATG,0.08 kcal/mol
3,TGTTGCACGTGAGCTT,0.08 kcal/mol
4,GTCGTCACGTGGGGCG,-0.12 kcal/mol
5,ATTGGCACGTGAGTGA,-0.01 kcal/mol
6,GCTGGCACGTGTAGTG,0.03 kcal/mol
7,GAGGACACGTGCGTGT,-0.12 kcal/mol
8,TGAATCACGTGAAAGG,0.55 kcal/mol
9,TTTGACACGTGGGCCG,0.03 kcal/mol
10,AGTGTCACGTGTGTAA,-0.07 kcal/mol
11,TGTTGCACGTGATCTG,0.12 kcal/mol
12,AGTTCCACGTGAGAGG,0.33 kcal/mol
13,GGAGTCACGTGGTAAG,-0.01 kcal/mol
14,GAGGTCACGTGGTGGA,0.18 kcal/mol
15,TTGAGCACGTGGAGTC,-0.07 kcal/mol
16,AGTTTCACGTGAGCTT,0.26 kcal/mol
17,ATCTACACGTGGTGGG,0.03 kcal/mol
18,CGGGTCACGTGAATGG,0.29 kcal/mol
19,ACAGTCACGTGGGAGG,-0.17 kcal/mol
20,TGATGCACGTGTGTTA,0.02 kcal/mol
21,GGTTTCACGTGCAGGG,0.38 kcal/mol
22,TTGGACACGTGGTAAC,0.05 kcal/mol
23,TAGGTCACGTGAAGAA,0.41 kcal/mol
24,ATCTGCACGTGCGGTT,-0.13 kcal/mol
25,TGGGACACGTGCAGGT,-0.08 kcal/mol

row,Sequence,relative binding free energy
1,GTCAGCACGTGAGGTG,0.21 kcal/mol
2,TTTGGCACGTGTTAAA,-0.02 kcal/mol
3,CAGGTCACGTGGGTAA,-0.03 kcal/mol
4,AGGTGCACGTGGTCTA,-0.26 kcal/mol
5,TTGAGCACGTGGATCG,0.1 kcal/mol
6,TTCTACACGTGTAAGT,0.14 kcal/mol
7,GACGGCACGTGTAGGG,-0.02 kcal/mol
8,TGTGGCACGTGTATGT,-0.01 kcal/mol
9,AACTGCACGTGGGTGG,-0.24 kcal/mol
10,TCGTTCACGTGGACGT,0.24 kcal/mol
11,CTGTACACGTGTTGGG,0.14 kcal/mol
12,AGTAGCACGTGTTTAG,-0.11 kcal/mol
13,TTTGTCACGTGCTATA,-0.17 kcal/mol
14,CTTGTCACGTGGGATG,0.05 kcal/mol
15,TAAGTCACGTGCATGG,-0.01 kcal/mol
16,AAAGACACGTGGGAGG,-0.03 kcal/mol
17,TTGAGCACGTGCAGGT,-0.15 kcal/mol
18,CTTCTCACGTGTTGTG,0.04 kcal/mol
19,ACCGGCACGTGGTGTT,-0.02 kcal/mol
20,GGGATCACGTGAGATA,0.41 kcal/mol
21,GAGTTCACGTGGAGCT,0.35 kcal/mol
22,TAGTACACGTGGCAGT,-0.01 kcal/mol
23,CGTGTCACGTGCGGTA,0.11 kcal/mol
24,GTTCTCACGTGGATGG,0.19 kcal/mol
25,CTGGGCACGTGGTAAA,-0.18 kcal/mol

row,Sequence,relative binding free energy
1,TCTTTCACGTGATCGA,0.38 kcal/mol
2,GTATTCACGTGTAAGC,0.31 kcal/mol
3,CGCCTCACGTGGTGGG,0 kcal/mol
4,GGATGCACGTGATTCG,0.12 kcal/mol
5,TTTTCCACGTGTTCTT,0.2 kcal/mol
6,CTTAGCACGTGGTTAG,-0.12 kcal/mol
7,TCTGTCACGTGACTGG,0.25 kcal/mol
8,CGATTCACGTGAGTTG,0.36 kcal/mol
9,TGGTCCACGTGTGTGC,0.18 kcal/mol
10,TAGGTCACGTGTAGTT,0.09 kcal/mol
11,TGTGTCACGTGATACA,0.28 kcal/mol
12,TGATACACGTGGCGTG,-0.26 kcal/mol
13,TTTTACACGTGCTGGA,0.14 kcal/mol
14,GTGGACACGTGAATGT,0.23 kcal/mol
15,ATTGGCACGTGAGTCG,0.12 kcal/mol
16,AATTTCACGTGGTCGA,0.21 kcal/mol
17,TTATGCACGTGAGCTT,0.2 kcal/mol
18,TGGAGCACGTGGTATG,-0.24 kcal/mol
19,GGGAACACGTGGACGG,0.05 kcal/mol
20,GATGTCACGTGGGGAA,0 kcal/mol
21,GGTACCACGTGGTGAG,-0.05 kcal/mol
22,TAGTTCACGTGGAACG,0.36 kcal/mol
23,ATTGTCACGTGGTAAA,0.13 kcal/mol
24,GGTCGCACGTGGGAAT,-0.19 kcal/mol
25,TCTTTCACGTGATGTG,0.39 kcal/mol

row,Sequence,relative binding free energy
1,TTGTACACGTGGCGTG,-0.05 kcal/mol
2,CGGAGCACGTGTTGAG,-0.06 kcal/mol
3,ATGGTCACGTGGGCTG,-0.17 kcal/mol
4,AAAATCACGTGGTGGT,0.04 kcal/mol
5,GAGATCACGTGATTTG,0.31 kcal/mol
6,TTGTACACGTGAAGAA,0.26 kcal/mol
7,TAAGTCACGTGTAGCG,0.08 kcal/mol
8,TTTCACACGTGTTGGA,0.12 kcal/mol
9,TAATTCACGTGCTGTG,0.09 kcal/mol
10,TTTGTCACGTGCTGAA,-0.06 kcal/mol
11,AGATGCACGTGGTGTA,-0.09 kcal/mol
12,TGGGTCACGTGTCGGT,0.05 kcal/mol
13,GTGGGCACGTGCAGGT,-0.02 kcal/mol
14,GGGAACACGTGGCGTG,-0.19 kcal/mol
15,ATGAGCACGTGAGTCT,0.25 kcal/mol
16,ACGTGCACGTGTCGTG,-0.16 kcal/mol
17,ATTGACACGTGTCAGG,0.05 kcal/mol
18,TAGGACACGTGAGATG,0.22 kcal/mol
19,AGCAGCACGTGGCGGT,-0.08 kcal/mol
20,TGGGCCACGTGAGGAG,-0.02 kcal/mol
21,GATTGCACGTGGTGGC,-0.04 kcal/mol
22,TTCTTCACGTGGAGCT,0.4 kcal/mol
23,TCGTTCACGTGGAAAA,0.48 kcal/mol
24,ATGGCCACGTGTGAGT,0.06 kcal/mol
25,GATCGCACGTGGTATT,-0.02 kcal/mol

row,Sequence,relative binding free energy
1,ATGTACACGTGTAGGT,0.06 kcal/mol
2,CTATACACGTGGGTGA,-0.13 kcal/mol
3,GTACTCACGTGTGTGA,0.27 kcal/mol
4,AGGAGCACGTGTTTGG,-0.11 kcal/mol
5,TCAGGCACGTGGAGGG,-0.2 kcal/mol
6,GTGGGCACGTGTACAT,-0.04 kcal/mol
7,CGTTTCACGTGGTGTG,0.21 kcal/mol
8,GTTGGCACGTGGTTCC,0 kcal/mol
9,TGTTTCACGTGGCTCT,0.27 kcal/mol
10,AGGCACACGTGAGTGA,0.35 kcal/mol
11,CGTATCACGTGTGTGC,0.06 kcal/mol
12,TATTCCACGTGTGGAG,0.09 kcal/mol
13,CGGGACACGTGGGATG,-0.12 kcal/mol
14,GAAATCACGTGAGGTT,0.51 kcal/mol
15,CGATGCACGTGGTGGC,-0.03 kcal/mol
16,TTTGTCACGTGTCGAA,0.1 kcal/mol
17,ATAGGCACGTGGTCGT,-0.25 kcal/mol
18,AAGGACACGTGTTGTA,0.04 kcal/mol
19,TGACTCACGTGGGTTC,0.15 kcal/mol
20,GTAGACACGTGGATGT,0.07 kcal/mol
21,CATAGCACGTGGGGAG,-0.24 kcal/mol
